Reference: PubChem BioAssay AID588342 (National Center for Advancing Translational Sciences (NCATS), 2011)
Hit rate of the full screen: of about 360,000 compounds, about 25,000 (6.9%) were called active. This list was built around the results that the source calls inconclusive (neither active nor inactive); the mix of calls is not that of the screen. The call rests on the fitted dose curve; in most records, active means well fitted inhibition curve with a large enough effect; inconclusive means small, poorly fitted or top-dose-only effect; inactive means flat fitted curve, though single readings scatter. A potency beside an inconclusive call is a rough fit, not a confirmed value.

target: Luciferin 4-monooxygenase (Photinus pyralis) (UniProt P08659); assay: qHTS profiling assay for firefly luciferase inhibitor/activator using purifed enzyme and Km concentrations of substrates (counterscreen for miR-21 project); settings: purified FLuc, luminescence inhibition; series mostly up to 57.5 µM; further: nearly all actives have a fitted effect of over 55% in size;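 on activity change, negative = inhibition: plate controls were vehicle for no effect and reference inhibitor for full effect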
Chain of UniProt P08659 (P08659 whole entry, looked up): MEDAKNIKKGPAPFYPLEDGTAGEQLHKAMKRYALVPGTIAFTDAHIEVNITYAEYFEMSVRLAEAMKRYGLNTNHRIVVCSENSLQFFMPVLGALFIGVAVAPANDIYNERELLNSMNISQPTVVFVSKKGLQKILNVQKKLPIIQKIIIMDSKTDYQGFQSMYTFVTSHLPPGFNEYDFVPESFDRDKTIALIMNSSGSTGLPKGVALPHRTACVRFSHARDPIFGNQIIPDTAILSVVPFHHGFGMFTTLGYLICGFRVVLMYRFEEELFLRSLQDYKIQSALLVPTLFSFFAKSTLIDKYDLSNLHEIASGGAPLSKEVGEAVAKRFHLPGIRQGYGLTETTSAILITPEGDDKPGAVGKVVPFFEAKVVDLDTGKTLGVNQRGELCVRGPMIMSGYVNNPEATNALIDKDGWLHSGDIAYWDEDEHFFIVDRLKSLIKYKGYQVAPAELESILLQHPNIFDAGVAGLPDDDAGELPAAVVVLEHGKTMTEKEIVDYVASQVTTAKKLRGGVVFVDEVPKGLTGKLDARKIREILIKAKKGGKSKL
Procedure, shortened: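 Biochemical qHTS of compounds, final roughly 60 µM downward over six points, against 10 nM purified firefly luciferase using Km concentrations of substrates (10 uM D-luciferin, 10 uM ATP) in Tris acetate pH 7.5 buffer; luminescence output.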
Potency means the concentration at half of the fitted maximal effect; tags describe the fitted curve by direction and shape.

**Q.** `CC(=O)CCc1ccc(OC(=O)c2cccnc2)cc1` was tested. Which Potency did it give?
**A.** The Potency was inconclusive: 37.9 µM [inhibitor, partial curve, poor fit].

**Q.** How did the Potency turn out when `CC(C1CC1)N(Cc1ccccc1)C(=S)Nc1ccccc1Cl` (stereo not given) was run?
**A.** The Potency was “inactive”.

**Q.** `O=C(Cn1c(=O)nc(-c2ccccc2)c2ccccc21)N1CCN(c2ccc(F)cc2)CC1` was tested. Which Potency did it give?
**A.** The Potency was “inactive”.

**Q.** For `Cc1ccc(NC(=O)C2Cc3ccccc3C(=O)O2)cc1` (stereo not given), which Potency is on record?
**A.** Its Potency is inconclusive: 37.9 µM [inhibitor, partial curve, poor fit].

**Q.** `CCOc1cccc(C(=O)Nc2cccnc2)c1` was tested. Which Potency did it give?
**A.** Its Potency is inconclusive: 37.9 µM [inhibitor, partial curve, poor fit].

**Q.** `CC(=Nc1ccc(C)c(C)c1)C1=C(O)CCC1=O` was tested. Which Potency did it give?
**A.** The Potency was inconclusive: 12 µM [inhibitor, partial curve].

**Q.** `C(=N\Nc1nc2ccccc2s1)/c1ccc2c(c1)OCO2` was tested. Which Potency did it give?
**A.** Its Potency is active: 0.757 µM.

**Q.** `CCSc1nnc(NC(=O)[C@@H](NC(=O)c2ccccc2F)C(C)C)s1` was tested. Which Potency did it give?
**A.** The Potency was inconclusive: 23.9 µM [inhibitor, partial curve, poor fit].

**Q.** How did the Potency turn out when `COc1ccc(OC)c(/C=C2\N=C(c3ccccc3)OC2=O)c1` was run?
**A.** Its Potency is inconclusive: 30.1 µM [inhibitor, partial curve, poor fit].

**Q.** How did the Potency turn out when `CCn1cc(C(=O)NCc2cccc(F)c2)c(=O)c2cc(F)c(N3CCN(C(=O)c4ccco4)CC3)cc21` was run?
**A.** The Potency was “inactive”.

**Q.** `Nc1ccc(NC(=O)NC2CCCCC2)cc1` was tested. Which Potency did it give?
**A.** Its Potency is inconclusive: 37.9 µM [inhibitor, partial curve, poor fit].

**Q.** `CC(=O)c1ccc(-n2c(CCC(=O)O)ccc2-c2cccs2)cc1` was tested. Which Potency did it give?
**A.** Its Potency is inconclusive: 13.5 µM [inhibitor, partial curve].

**Q.** How did the Potency turn out when `Cc1ccc(C)c(CSc2nnc(C)n3c2cc2sccc23)c1` was run?
**A.** The Potency was “inactive”.

**Q.** With `CCn1c(SC)nnc1-c1c[nH]c2ccccc12` as the compound, how does the Potency read?
**A.** The Potency was inconclusive: 30.1 µM [inhibitor, single point].

**Q.** With `COCC(=O)NC1CC(C)(C)Cc2c1cnn2-c1ccc(F)cc1` (stereo not given) as the compound, how does the Potency read?
**A.** The Potency was “inactive”.

**Q.** Which Potency does the source give for `COC(=O)c1ccc(N2CN=C(c3ccc(C)cc3)NC2=S)cc1` here?
**A.** The Potency was inconclusive: 13.5 µM [inhibitor, partial curve, poor fit].

**Q.** How did the Potency turn out when `CCC(O)c1cc2c(cc1NC(=O)c1ccc(C)cc1)OCCO2` (stereo not given) was run?
**A.** Its Potency is inconclusive: 21.3 µM [inhibitor, single point].

**Q.** With `Cn1c(=O)c2c(nc(NCc3ccco3)n2Cc2ccccc2Cl)n(C)c1=O` as the compound, how does the activity change, negative = inhibition read?
**A.** The activity change, negative = inhibition was inactive: 2.81% [at 2.3 µM].

**Q.** For `O=C(NC(=S)Nc1ccc2c(c1)OCO2)c1ccccc1`, which Potency is on record?
**A.** The Potency was active: 3.79 µM.

**Q.** Which Potency does the source give for `Cn1c(SCc2ccccc2)nnc1-c1c[nH]c2ccccc12` here?
**A.** The Potency was active: 16.9 µM.

**Q.** For `Cc1ccc(C(=O)c2cccc(N)c2)cc1C`, which Potency is on record?
**A.** Its Potency is inconclusive: 23.9 µM [inhibitor, single point].

**Q.** `CCCO/N=C1/C(=O)N(c2ccccc2)c2ccccc21` was tested. Which Potency did it give?
**A.** Its Potency is inconclusive: 26.9 µM [inhibitor, partial curve, poor fit].

**Q.** `COc1ccc(OC)c(NC(=O)Nc2cccc3ccccc23)c1` was tested. Which Potency did it give?
**A.** Its Potency is “inactive”.

**Q.** `COc1ccc(-c2cn(Cc3ccc(C(N)=O)cc3)c(CCN)n2)cc1` was tested. Which Potency did it give?
**A.** Its Potency is inconclusive: 23.9 µM [inhibitor, partial curve, poor fit].

**Q.** For `CCC(C)(C)C1CCc2c(sc(N)c2C(N)=O)C1` (stereo not given), which Potency is on record?
**A.** Its Potency is inconclusive: 23.9 µM [inhibitor, single point].

**Q.** How did the Potency turn out when `Cc1nc(-c2ccc(C(=O)Nc3ccccc3F)cc2)cs1` was run?
**A.** The Potency was active: 0.239 µM.

**Q.** For `O=C(CN1CCCCC1)Nc1cc(Cl)ccc1Cl`, which Potency is on record?
**A.** The Potency was inconclusive: 15.1 µM [inhibitor, partial curve].

**Q.** With `C/C(=N\NC(=O)c1ccc(CSc2cccc3cccnc23)cc1)C1CCCCC1` as the compound, how does the Potency read?
**A.** The Potency was inconclusive: 30.1 µM [inhibitor, partial curve, poor fit].

**Q.** `CCc1cc2c(cc3c(=O)n(CC(=O)N4CCN(c5cccc(C)c5C)CC4)nc(CC)n32)s1` was tested. Which Potency did it give?
**A.** The Potency was “inactive”.

**Q.** How did the Potency turn out when `COc1ccc(C(=O)Nc2ccc(Cc3ccncc3)cc2)cc1Br` was run?
**A.** Its Potency is inconclusive: 26.9 µM [inhibitor, single point].

**Q.** Which Potency does the source give for `Cc1c(C(=O)NNC(=O)c2csc(N3CCOCC3)n2)oc2ccccc12` here?
**A.** The Potency was active: 26.9 µM.

**Q.** `COc1ccc(CCNCc2c(C(=O)O)c(C)n(Cc3cccc(Cl)c3)c2C)c(OC)c1OC` was tested. Which Potency did it give?
**A.** Its Potency is “inactive”.

**Q.** For `O=C(O)/C=C\C(=O)Nc1cccc(C(=O)Nc2cccc(O)c2)c1`, which Potency is on record?
**A.** The Potency was inconclusive: 23.9 µM [inhibitor, single point].

**Q.** Which Potency does the source give for `COc1ccc(CCNC(=O)c2cc3c(=O)n(C)c4ccccc4c3s2)cc1OC` here?
**A.** Its Potency is “inactive”.

**Q.** With `O=C(c1ccco1)N1CCN(Cc2ccc(F)cc2Cl)CC1` as the compound, how does the Potency read?
**A.** Its Potency is inconclusive: 23.9 µM [inhibitor, single point].

**Q.** For `COc1ccc(/C=C/c2cc(C(F)(F)F)[nH]c(=O)n2)cc1OC`, which Potency is on record?
**A.** Its Potency is inconclusive: 37.9 µM [inhibitor, single point].

**Q.** Which Potency does the source give for `Cc1ccc(NC(=S)/C(=C(\[O-])c2ccc(C)c([N+](=O)[O-])c2)[n+]2ccccc2)cc1C` here?
**A.** The Potency was inconclusive: 37.9 µM [inhibitor, single point].

**Q.** How did the Potency turn out when `CCCn1c(=O)c2sccc2n2c(CCCC(=O)N3CCN(c4cccc(Cl)c4)CC3)nnc12` was run?
**A.** Its Potency is “inactive”.

**Q.** Which Potency does the source give for `O=C(O/N=C\c1ccc(N2CCOCC2)c([N+](=O)[O-])c1)c1ccccc1Cl` here?
**A.** Its Potency is inconclusive: 12 µM [inhibitor, partial curve, poor fit].

**Q.** How did the Potency turn out when `CCc1ccccc1NC(=S)N(CCN1CCOCC1)Cc1ccccc1F` was run?
**A.** Its Potency is “inactive”.

**Q.** How did the Potency turn out when `CC(=O)c1cccc(NC(=O)CN2C(=O)CC(c3ccc(C)cc3C)=Nc3ccccc32)c1` was run?
**A.** Its Potency is inconclusive: 10.7 µM [inhibitor, partial curve, poor fit].

**Q.** Which Potency does the source give for `O=C(C1COc2ccccc2O1)N1CCN(Cc2ccc(Br)cc2F)CC1` (stereo not given) here?
**A.** Its Potency is “inactive”.

**Q.** Which Potency does the source give for `O=C(/C=C/c1ccc(Cl)cc1)N1CCC(c2nc3ccccc3o2)CC1` here?
**A.** The Potency was inconclusive: 15.1 µM [inhibitor, partial curve].

**Q.** Which Potency does the source give for `Cc1cc(N/N=C2\CC(C)CC(C)(C)C2)nc2ccccc12` (stereo not given) here?
**A.** Its Potency is inconclusive: 26.9 µM [inhibitor, partial curve].

**Q.** How did the Potency turn out when `COc1cccc(-c2nnc(NC(=O)c3ccc4ncsc4c3)o2)c1` was run?
**A.** Its Potency is inconclusive: 6.75 µM [inhibitor, single point].
